The chains are these.
B1: TPR 5TU (parent)
chain: GGAUCUUCUCGAUCUAACAAAAAAGACAAAUCUGCCACAAAGCUUGAGAGCAUCUUCGGAUGCAGAGGCGGCAGCCUUCGGUGGCGCGAUAGCGCCAACGUUCUCAACUAUGACACGCAAAACGCGUGCUCCGUUGAAUGGAGUUUAUCAUG

This sample is rich in variants without activity. Some results are limits rather than exact numbers.

This series covers variants of B1. Nature of the series: polymerase ribozyme fitness, log enrichment relative to wild type (log ratio); higher = more active; in vitro selection for triplet polymerase activity. The method in brief:
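PCR was used to build mutant libraries for each subunit of a heterodimeric triplet polymerase ribozyme, which were then transcribed. A single in vitro selection round, in triplicate, used a frozen incubation at −7 °C and recovered extended constructs by gel excision, streptavidin beads and RT-PCR. Fitness is the logarithm of genotype enrichment relative to wild-type enrichment, averaged over replicates with inverse-variance weights. The logarithm is base 2, and after Illumina sequencing only genotypes with ≥10 input reads and ≥1 read per output were kept.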
Consider A23C A29U G46C C96U U135C U151C, for which the “polymerase ribozyme fitness (log ratio)” value is not above -4.2.

Consider A22G C57U G70A A91C, for which the “polymerase ribozyme fitness (log ratio)” value is not above -4.2.

As to A23G A28G G83U G88A, the “polymerase ribozyme fitness (log ratio)” value was not above -4.2.

For the variant A23C A30U G58C G59C G84A A119G U148A, the “polymerase ribozyme fitness (log ratio)” value was not above -4.2.

As for A23U A24U U53A G86U G92C G94C C131A U135G, the “polymerase ribozyme fitness (log ratio)” value was not above -4.2.

With A22U G48C G59A C76A C85A C116A G143C, the “polymerase ribozyme fitness (log ratio)” value is not above -4.2.

As for A23C G133A U135C G141A A150C, the “polymerase ribozyme fitness (log ratio)” value is not above -4.2.

Turning to A23G U33C U53A C96U, the “polymerase ribozyme fitness (log ratio)” value was not above -4.2.

As for A23G C27A A37C G81A C87G U101C U134C, the “polymerase ribozyme fitness (log ratio)” value was not above -4.2.

A23C G58A G62A C87A C116G U135G: the “polymerase ribozyme fitness (log ratio)” value is not above -4.2.

For A23C A47C G59A G68A C85A C96U U148A, the “polymerase ribozyme fitness (log ratio)” value is not above -4.2.

For the variant A23C C96U C129A U130G U139A, the “polymerase ribozyme fitness (log ratio)” value is not above -4.2.

A23C A39U G46U U90A C96A C99U C114G G141C: the “polymerase ribozyme fitness (log ratio)” value is not above -4.2.

In the case of A22U A39U G68A U77A G80U C96G, the “polymerase ribozyme fitness (log ratio)” value was not above -4.2.

A22U C27A C85G G100A: the “polymerase ribozyme fitness (log ratio)” value is not above -4.2.

Regarding A22U G71A, the “polymerase ribozyme fitness (log ratio)” value is -2.64.

For A23G A24G A30G G42A G81A C85A U90A A113U C118A, the “polymerase ribozyme fitness (log ratio)” value is not above -4.2.

Regarding A22G C85U G133C, the “polymerase ribozyme fitness (log ratio)” value is -1.48.

Regarding A22U C87G C114U U148A, the “polymerase ribozyme fitness (log ratio)” value is not above -4.2.

On to A22U G94U G141A G143C, for which the “polymerase ribozyme fitness (log ratio)” value was not above -4.2.

Regarding A23G A30U G50U U53A C85U U101G C108A U144A, the “polymerase ribozyme fitness (log ratio)” value was not above -4.2.

On to A22U A150C, for which the “polymerase ribozyme fitness (log ratio)” value is -2.85.

With A23G U31A C85U U151C, the “polymerase ribozyme fitness (log ratio)” value is not above -4.2.

Turning to A22U G46A, the “polymerase ribozyme fitness (log ratio)” value worked out at 0.387.

For A22U G86A G92U, the “polymerase ribozyme fitness (log ratio)” value was -1.74.

As for A23C A49C C54A C87U A97G U144G, the “polymerase ribozyme fitness (log ratio)” value is not above -4.2.

Consider A22U A52G U55A U78A C85U C87U C103A G126C U144C, for which the “polymerase ribozyme fitness (log ratio)” value was not above -4.2.

As for A22U C35U G67A U127A, the “polymerase ribozyme fitness (log ratio)” value is not above -4.2.

As for A23C A28G A37U G68C C72A G86A C87A, the “polymerase ribozyme fitness (log ratio)” value is not above -4.2.

For A23G U33C G58U C76U C96A A119U, the “polymerase ribozyme fitness (log ratio)” value is not above -4.2.

Take A22U C96U A121U U139A: the “polymerase ribozyme fitness (log ratio)” value is -4.03.

With A22U A24C U44A U45G G59U A89G A120U U127C, the “polymerase ribozyme fitness (log ratio)” value was not above -4.2.

With A22G G100A, the “polymerase ribozyme fitness (log ratio)” value was not above -4.2.

As to A22U G67A, the “polymerase ribozyme fitness (log ratio)” value was not above -4.2.

Turning to A22G C87U C103A A137G G141C, the “polymerase ribozyme fitness (log ratio)” value is not above -4.2.

For the variant A23C G48A G67C U135C, the “polymerase ribozyme fitness (log ratio)” value is not above -4.2.

With A23C U45A G84A A142C A150U, the “polymerase ribozyme fitness (log ratio)” value was not above -4.2.

For A23C A41G A47U A52G U82A C85A C118G, the “polymerase ribozyme fitness (log ratio)” value is not above -4.2.

In the case of A22G A26U C27U C38U G84U C85A U101G U139A, the “polymerase ribozyme fitness (log ratio)” value is not above -4.2.

As for A23G U56A G92C, the “polymerase ribozyme fitness (log ratio)” value is not above -4.2.

As for A22G C54U, the “polymerase ribozyme fitness (log ratio)” value is 0.651.

In the case of A23G G34C U55G G67U C95U A115U G133A, the “polymerase ribozyme fitness (log ratio)” value is not above -4.2.

Consider A23G A47G G88C U90G, for which the “polymerase ribozyme fitness (log ratio)” value is not above -4.2.

Consider A22U U31C C35U U90G A106C, for which the “polymerase ribozyme fitness (log ratio)” value is not above -4.2.

Turning to A22U A24U U44A C93A C96U C118U, the “polymerase ribozyme fitness (log ratio)” value is not above -4.2.

A22U C54A A91G: the “polymerase ribozyme fitness (log ratio)” value is -3.53.

For the variant A22G A23U A52U A60U G83A G92A U146G, the “polymerase ribozyme fitness (log ratio)” value was not above -4.2.

For the variant A22G A41C G48U G58A G62C C76U C96G C114A, the “polymerase ribozyme fitness (log ratio)” value was not above -4.2.

Turning to A22G C54A U61G C85A G86C A138C G143C U144G, the “polymerase ribozyme fitness (log ratio)” value is not above -4.2.

Regarding A22U G25C G48C A122U, the “polymerase ribozyme fitness (log ratio)” value was not above -4.2.

For A22U C51G G86U C99U U139C, the “polymerase ribozyme fitness (log ratio)” value was not above -4.2.

Turning to A22G G86U U90G C105U, the “polymerase ribozyme fitness (log ratio)” value was not above -4.2.

On to A22U C32G A41U G59A A107C U127C, for which the “polymerase ribozyme fitness (log ratio)” value was not above -4.2.

For A23U A26C G42A A91U G152A, the “polymerase ribozyme fitness (log ratio)” value was not above -4.2.

As to A22G A24G G59U C87G A110G G143U G152C, the “polymerase ribozyme fitness (log ratio)” value was not above -4.2.

In the case of A22U C32U U55G U56C C75A G88U C105U A142U, the “polymerase ribozyme fitness (log ratio)” value is not above -4.2.

On to A23C A37C U56C G84U C131U, for which the “polymerase ribozyme fitness (log ratio)” value was not above -4.2.

Turning to A23G C51G U53A A60G G84A U104G C116U A121C, the “polymerase ribozyme fitness (log ratio)” value is not above -4.2.

With A23G A47C A113G U135G, the “polymerase ribozyme fitness (log ratio)” value is not above -4.2.

For A23G A26C G141A C149G, the “polymerase ribozyme fitness (log ratio)” value is not above -4.2.

Take A22U A24G C43U C95U: the “polymerase ribozyme fitness (log ratio)” value was not above -4.2.

As for A22G G34U C38A C95A G140C, the “polymerase ribozyme fitness (log ratio)” value is not above -4.2.

For the variant A22U A40C G65A, the “polymerase ribozyme fitness (log ratio)” value is -3.81.

A22U G140A: the “polymerase ribozyme fitness (log ratio)” value was -2.83.

For the variant A23C A52U C76A C85G G88U C116G, the “polymerase ribozyme fitness (log ratio)” value was not above -4.2.

Regarding A22U C51G C69U C79U A91U G100A A115G U148A U151C, the “polymerase ribozyme fitness (log ratio)” value is not above -4.2.

A22U G46U C69A C93A C131A U148A: the “polymerase ribozyme fitness (log ratio)” value was not above -4.2.

On to A23U A28C A60C U61G G67A C87G C96A, for which the “polymerase ribozyme fitness (log ratio)” value is not above -4.2.

Regarding A22G G62A C76A C93U A138G, the “polymerase ribozyme fitness (log ratio)” value was not above -4.2.

Regarding A23G A26G U55G U77G G92A C95U A98G C103G C116A C125A, the “polymerase ribozyme fitness (log ratio)” value was not above -4.2.

For A23C A40U G59U G62C G83A U135A U146A, the “polymerase ribozyme fitness (log ratio)” value was not above -4.2.

With A22G U61G C103G, the “polymerase ribozyme fitness (log ratio)” value is not above -4.2.

Take A23G U33C A37G G58C U61A G68C C95U U130C: the “polymerase ribozyme fitness (log ratio)” value is not above -4.2.

Take A22C U53A G84C G112A C129A U134G A147C: the “polymerase ribozyme fitness (log ratio)” value is not above -4.2.

For the variant A22U A23C G25A G42U U55A G88U A98U A119G G143A, the “polymerase ribozyme fitness (log ratio)” value is not above -4.2.

In the case of A23C U33G A91G C103G G141A, the “polymerase ribozyme fitness (log ratio)” value was not above -4.2.

A23C C36U A64C U144G: the “polymerase ribozyme fitness (log ratio)” value was not above -4.2.

With A23C A64G G70C, the “polymerase ribozyme fitness (log ratio)” value was not above -4.2.

For A23C C35A G68U C96A A106G G133C, the “polymerase ribozyme fitness (log ratio)” value is not above -4.2.

A22G C85G A91U G94A: the “polymerase ribozyme fitness (log ratio)” value was not above -4.2.

As for A22U A23U G68U C75U C76U G92U, the “polymerase ribozyme fitness (log ratio)” value is not above -4.2.

For the variant A23C G83A, the “polymerase ribozyme fitness (log ratio)” value was not above -4.2.

With A22U C51G G84A C114U U130A G141A, the “polymerase ribozyme fitness (log ratio)” value is not above -4.2.

Take A22U G34U A106U U144A: the “polymerase ribozyme fitness (log ratio)” value is not above -4.2.
